T1: UNK ZnF1-3 (human, UniProt Q9C0B0 31-174)
T1 sequence: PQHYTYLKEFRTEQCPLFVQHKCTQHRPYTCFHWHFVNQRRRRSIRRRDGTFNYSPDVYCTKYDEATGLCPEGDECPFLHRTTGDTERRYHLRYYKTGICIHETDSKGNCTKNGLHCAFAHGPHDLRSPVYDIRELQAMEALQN

B1: chr16:94664741:94664742:+_ENSMUSG00000040785_ENSMUST00000117648|mus_hu|mus_mus_mus_hu_False|68_88 (ssRNA)
RNA: GGGAGUUCUACAGUCCGACGAUCUGGUACUGAUCUUGGUAGCUGAUACUCAGAAGAAAGGCUGGCCAAAGGUGUGUAUAUGCUGGUGUACUGGGGCAAACCUGGUAACACGUUUAUGUAUGCUGGCGGUGUCUGGGUGAUAUCCAACAGAGGAUUGAGCAUCA
B2: chr7:151048522:151048523:+_ENSG00000013374_ENST00000566856|hu_mus|hu_hu_hu_mus_True|18_98 (ssRNA)
RNA: GGGAGUUCUACAGUCCGACGAUCCUGUUUCUUAUUUAUGACAAUUUUGAUGUAAUUUUCUUGAAAUCCGAAAGUUUCAGCUAUUUGACACCUCAGGUCUCUACCAGUGACAUGCAAUCGGGUCUCCAACAAGCUUUUCUUAUCCAACAGAGGAUUGAGCAUCA
B3: chr12:16947260:16947261:+_ENSMUSG00000020580_ENSMUST00000020904|mus_mus|FALSE|FALSE (ssRNA)
RNA: GGGAGUUCUACAGUCCGACGAUCAAUAUCUCUUUCUUCCCAGAAAAAAGCAGAAUCUGAUCUUUUUAUCAUUUCAAAUUUACUAAGAAGCUUCAUUGCAUAAACCUUCUGUGAUGCCUUAUGACGAACCAACUGAACUUCACCCAACAGAGGAUUGAGCAUCA
B4: chr1:205685097:205685098:-_ENSG00000069275_ENST00000367142|hu_hu|FALSE|FALSE (ssRNA)
RNA: GGGAGUUCUACAGUCCGACGAUCUAUCAAGCCUGACUAUUGAGCACCUGUAUCCAGUUGAGUCACCACCACUGUCCUCCUAUUUGCAUGCAUGAUUUGAGGGGAAGACUAGAGUGUUUUAAAUCAUCAAUAAAAAGUGGAGAACAACAGAGGAUUGAGCAUCA
B5: chr14:20710596:20710597:-_ENSMUSG00000043004_ENSMUST00000160013|mus_mus|FALSE|FALSE (ssRNA)
RNA: GGGAGUUCUACAGUCCGACGAUCAUCCUGUCGAUGUUGGCUUCCAUCUUCAGCUGUUCUACCAGCUUCCUGGCUUGUGCUAUGCUGGCGGUGUUGUUGCUGGCCAUUGGAGCGUUGGAUGGGGUCUUCAGAGACUCUGGUCAGCAACAGAGGAUUGAGCAUCA
B6: 14287163_14290935_615_CDS_ENSG00000038382_ENST00000344204|human|control|control (ssRNA)
RNA: GGGAGUUCUACAGUCCGACGAUCUCUGAUUUCAAUCCAUUCUUCGUGGUUGUAUUCCAGGCAGCCAUCAAACUCAGGAGUUAGCUGAGAAGGAUCAACUACUUUGGUAAGGCCUUCUAAAGAGACCAUAUUUGUCUCAAAUUCCAACAGAGGAUUGAGCAUCA
B7: chr3:9412954:9412955:+_ENSG00000134077_ENST00000452837|hu_mus|hu_hu_hu_mus_False|18_28 (ssRNA)
RNA: GGGAGUUCUACAGUCCGACGAUCGGUUGAUAUCUCUUCUUUGAUGGCUGGAUUUUCAUAAUAGUCCAAGAUAUGUGAAUCUGAAGUGCUGCUGGCAUGCUUUUUCUUAACAUUUCUCUGAUCGAUUUUGUCUCCUUGUCCACACAACAGAGGAUUGAGCAUCA
B8: chr12:110720550:110720551:+_ENSG00000174437_ENST00000539276|hu_mus|FALSE|FALSE (ssRNA)
RNA: GGGAGUUCUACAGUCCGACGAUCUUCCUCGAACCAAGCCAAAACGAAAGAUAUACAUGCUGCCAGCAGUAAAAUUCUAACUAGUAAGUCUUCAAACUGCUCAAUCACAAGUUCCAGCAAGGUUUUUCCUUCUUCAGCCGGCAACAACAGAGGAUUGAGCAUCA
B9: 57393166_57394276_872_CDS_ENSMUSG00000032306_ENSMUST00000034856|mouse|control|control (ssRNA)
RNA: GGGAGUUCUACAGUCCGACGAUCAGCACGCACGGUAUUGUCCGAACAUGCCAUGCAUUCCACGCAGUCUCCCUUCAGGUAGGCAUGGGGUACGUUGGCAUCCAGAAACAUGGCUUCCCCAGGCUUCAAGGUGAGCAGGUUCAGCAACAGAGGAUUGAGCAUCA
B10: chr19:29884105:29884106:-_ENSMUSG00000074909_ENSMUST00000099525|mus_mus|motif|central (ssRNA)
RNA: GGGAGUUCUACAGUCCGACGAUCCAGAGAGAAAUGGUAUAUCUCUCAUUUGUAAUGAAUCCACUCACGACACGUUGUAGCGGCUUUUAUGAUAGAUGGUAUUAAACUGCUUCAAGCAAAACUGAGUAACUCAUGUAAAGCUUCCAACAGAGGAUUGAGCAUCA
B11: chr2:78712580:78712581:+_ENSMUSG00000027011_ENSMUST00000028398|mus_mus|motif|central (ssRNA)
RNA: GGGAGUUCUACAGUCCGACGAUCGUUAGGAGGAGGAUCAAGGGUUAUCUCUGCUAGCUCCUUCUGAAUUCUUUUAGCACGGGUGGAUAACUUAGCAGUCGUUUUGCUAGAGAGUUUGGUGUUUUUCUUCUGCUGGGUGGCAGACAACAGAGGAUUGAGCAUCA
B12: 53854897_53858558_661_CDS_ENSG00000197111_ENST00000546463|human|control|control (ssRNA)
RNA: GGGAGUUCUACAGUCCGACGAUCUGUGCUGUACCUGUCCUGACCACCUGCAAAGAUGACCGGAGAGCUGGACGGCUUGGGCCGGUACGGGAUGGUCACGCCCUUCGGGGGGGACUCCAACAUGACCACGCAGAUCUGUUUGACCAACAGAGGAUUGAGCAUCA
B13: chr11:87793471:87793472:-_ENSMUSG00000020483_ENSMUST00000020775|mus_mus|mus_mus_mus_hu_False|48_98 (ssRNA)
RNA: GGGAGUUCUACAGUCCGACGAUCUGGACUUGAAAAUAAAAAAAAUAGCUGGAUCCCCCACCCCCCCACAUUGUCAACCCUACACGAGUUCUGAAUGGGCGACUCAUGAAAAUCAGCAGCUCAAACGGCAAUGACCACCCCACCCAACAGAGGAUUGAGCAUCA
B14: chr2:217001886:217001887:+_ENSG00000079246_ENST00000392132|hu_mus|FALSE|FALSE (ssRNA)
RNA: GGGAGUUCUACAGUCCGACGAUCGUAAGGGAAGGCUACACCAACUUGAGGAUUAGAUCUUUUGUCAUAAGCAUAUCGGACGAUGGCGACCAUGUUUAACUCAUCCAAAGCAUGAACGAGAGAGGAAAGGGCAACAGCUGCCGCCAACAGAGGAUUGAGCAUCA
B15: chr1:180459674:180459675:+_ENSMUSG00000026494_ENSMUST00000161017|mus_mus|FALSE|FALSE (ssRNA)
RNA: GGGAGUUCUACAGUCCGACGAUCGCCUCUCUUUAUUUCCGGCUACCGAAUUCAUGGUGGCUCUUCCAGAGGAAAGGGUCUAAAUGUUCCCACAAGGCUACAUCCAAAAGGUCUGCCAACCCAGACGCGUCCCCCCUCGUGGUACAACAGAGGAUUGAGCAUCA
B16: chrX:71549400:71549401:+_ENSMUSG00000019087_ENSMUST00000019231|mus_hu|mus_mus_mus_hu_False|78_88 (ssRNA)
RNA: GGGAGUUCUACAGUCCGACGAUCGCAGUAGGAAGAGGGAAGCUCUUCAUCCACUGUGUCACAAAACUGGGAAAGCAACAACACGGACACCGUCCCACCCUCAACCCCCCCACUGGCACAGGGUCACACAAUCUGGGUCAAAGACAACAGAGGAUUGAGCAUCA
B17: chr5:77717642:77717643:+_ENSG00000085365_ENST00000538629|hu_mus|FALSE|FALSE (ssRNA)
RNA: GGGAGUUCUACAGUCCGACGAUCGACUGCUCUCGAGGAAUCAACACAAAACCAGGCCAAGCAUCCGAAGAUGUUCAGAAACAGGGUCACUGCAUGGAACAUCCAUAGGUAGUACAUAAGCUUCACCGUCUUCUGGAAUUCUACCAACAGAGGAUUGAGCAUCA
B18: chr16:17428906:17428907:+_ENSMUSG00000022765_ENSMUST00000023449|mus_hu|FALSE|FALSE (ssRNA)
RNA: GGGAGUUCUACAGUCCGACGAUCGCGGGGACAUCUGCCAACAAAAGAGCAAGAUGGCACACUCUAUUUCCCAUUCUAACACUGAUCCUUUCUGGGAGGAUGAAAGAAUCACAGAUAAUGUGCUCAGAGAGUGUGUGUGUGUGUCAACAGAGGAUUGAGCAUCA
B19: chr3:52741720:52741721:+_ENSG00000114902_ENST00000602728|hu_mus|FALSE|FALSE (ssRNA)
RNA: GGGAGUUCUACAGUCCGACGAUCGUAGAUAGGCCAUGGAGGAAGUGUCAGCAAACAGGAGAAAGCAAAUCCGGCCAUAACUAUGUAGACAGUCCACCCAAACUGUUCAGCCACGUACCCGUAGAUAAACCCAACUAUUGCAGACAACAGAGGAUUGAGCAUCA
B20: 56584608_56585569_802_3pUTR_ENSG00000108389_ENST00000323456|human|control|control (ssRNA)
RNA: GGGAGUUCUACAGUCCGACGAUCGCAUUGCGCCAGCCCCACCAGCUGAUCUCUGGCUGGCUGCAGCGGGCGAUGGCAGCCCCAUUGCGCAAGUGUCUAUACACAACCACGGGAAUCCGCUUCCAGGAGCGGAAGGAAGCCACGCAACAGAGGAUUGAGCAUCA
B21: 25701804_25721325_3122_CDS_ENSMUSG00000036333_ENSMUST00000066652|mouse|control|control (ssRNA)
RNA: GGGAGUUCUACAGUCCGACGAUCUGAUAUUCUCUCAUAGAUGGUCUUUAGCGUCAUCUGGUCAGGAAUACCUUCAGUCUCUCCCAGAUAUAGUAUGAGCCAGGACGUCCGGUAUGGCCACUGCUCAGUAAGGUUGAUCCAGCUCAACAGAGGAUUGAGCAUCA
B22: chr14:66974463:66974464:+_ENSMUSG00000022044_ENSMUST00000074523|mus_hu|mus_mus_mus_hu_False|1_28 (ssRNA)
RNA: GGGAGUUCUACAGUCCGACGAUCUUGUAGGACGACUUAUUCAGGGGAUCGGCCAGGAAGCAGGAGCAGAACAAGGACACCAGCGGGAGCUCCUUCAUCUUCUCUUUAUAGGCUGCAAGGGUCAUGUUUCUGGGAUCCUGGUGGCAACAGAGGAUUGAGCAUCA

The other results are listed elsewhere or left out.

For this assay, the target named is T1, UNK ZnF1-3. The assay is described as follows: nsRBNS (natural sequence RNA bind-n-seq); RBNS binding buffer (assumed for nsRBNS): 25 mM Tris pH 7.5, 150 mM KCl, 3 mM MgCl2, 0.01% Triton X-100, 500 ug/ml BSA, 20 U/ml SUPERase-In, 4 C; UNK is unkempt and MSI1 is Musashi-1; names of the RNAs are library labels; protein concentration not given here; high values mean tight binding.
On to B1, for which the binding signal stood at 1.05 enrichment R. The figure for B2 is 0.649 enrichment R; for B3 it is 0.876 enrichment R. In the case of B4, the binding signal is 2.13 enrichment R.

B5 gave a binding signal of 0.408 enrichment R. In turn, B6 registered a binding signal of 0.748 enrichment R.

The molecule B7 displayed a binding signal of 0.419 enrichment R. With B8, the binding signal came to 1.08 enrichment R. The result for B9 reads 1.27 enrichment R; that for B10, 0.742 enrichment R; that for B11, 0.842 enrichment R.

Molecule B12 returned a binding signal of 1.16 enrichment R. B13 showed a binding signal of 2.95 enrichment R.

Turning to B14, the binding signal came to 1.59 enrichment R.

B15 yielded a binding signal of 1.37 enrichment R.

Consider B16, for which the binding signal was 1.2 enrichment R.

On to B17, for which the binding signal turned out to be 1.54 enrichment R. As to B18, the binding signal stood at 1.81 enrichment R.

Molecule B19 displayed a binding signal of 1.7 enrichment R. The molecule B20 came in with a binding signal of 0.825 enrichment R.

Regarding B21, the binding signal was found to be 0.786 enrichment R. The result for B22 reads 1.87 enrichment R.

The values are drawn from paper PMC12136788.
